Values marked as one replicate rest on one cluster of the flow cell; about a third of the high ones do not repeat.
Tested on: ATP
Experiment: switch fluorescence ratio, 500 uM ATP over buffer (Cy3 cluster intensity, sum of 5 cycles each) (fold (ratio)); higher = stronger signal-on switching upon ATP binding; sequences stand for … in TCGTCGGCAGCGTCAGATGTGTATAAGAGACAGTTTTTTTTTTTTTTTTTTTTTTTTT…TC
Conditions: aptamer strand: ATP DNA aptamer (quencher-CACCTGGGGGAGTATTGCGGAGGAAGG + anchor), 100 nM annealed; ATP concentration: 500 uM; one replicate
Outline: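 Per cluster, summed Cy3 intensity from the target cycles was divided by that from the buffer cycles to give the fluorescence ratio, then averaged per switch-domain sequence. Clusters outside 100-1000 RFU were excluded. The Cy3-labelled switching-strand clusters, on a modified Illumina MiSeq flow-cell, were annealed to 100 nM quencher-labelled ATP aptamer and imaged in selection buffer, then after 15 min with 500 uM ATP at 22 °C, for five cycles with NaOH stripping and re-annealing between them.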
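Note: ATP exposure 15 min at 22 °C before imaging.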

| Sequence | switch fluorescence ratio |
| --- | --- |
| CGTAAGGTCT | 1.03 |
| CTAAAGAACG | 0.999 |
| TGTGTATTAG | 0.996 |
| TGGTCCTCGT | 1.02 |
| TATAAGGACT | 1 |
| TGACGCAGGG | 1.3 |
| GTGGGAGGA | 1.01 |
| GAATGGTTGA | 1.01 |
| GCCCGAGTTT | 0.992 |
| CTATACTATG | 0.993 |
| GTATTCTCAG | 0.972 |
| GGCGTGCGGC | 1.05 |
| CTTGGAAAGT | 0.986 |
| CGATAGCCAT | 1.06 |
| GGGTAGTATG | 1 |
| AGGCCGCCAT | 1.03 |
| GAGAAGGTAA | 0.982 |
| ATACCAGTCT | 1.05 |
| GGATCATGCG | 0.999 |
| TCATAGCACT | 1.02 |
| TTAGATCCTT | 1 |
| GCCTAATGCA | 1.02 |

| Sequence | switch fluorescence ratio |
| --- | --- |
| GCGCATTTGC | 1.26 |
| GGTGACCGGG | 0.938 |
| AGATAGTCTA | 1.03 |
| TACCCAGCCG | 1.16 |
| ACCTATTAAT | 1 |
| GCATAGTGA | 0.948 |
| GTCAGTAATA | 1.07 |
| TCGGCGTTAG | 1.05 |
| TCACGGAGCA | 2.43 |
| TCGTGCGGCA | 0.951 |
| CGGCAATCTT | 2.29 |
| CTTTTATAGG | 1.01 |
| GCCGGTAGTT | 0.995 |
| AGGGTCGTAC | 1.03 |
| TTGAATCCCG | 0.999 |
| AGTTAAGTAT | 0.972 |
| GAAAATGCGC | 0.979 |
| TTGGTACTAA | 1.04 |
| GAGGTCTAGT | 1.01 |
| CTGACTAAG | 1.02 |
| AGCAGGCCGT | 0.891 |
| CGTCGTATT | 0.958 |

| Sequence | switch fluorescence ratio |
| --- | --- |
| GATACAGCAT | 1.07 |
| AGAAACCACC | 1.77 |
| GTTGTTCTCT | 1.14 |
| CCGATATCGC | 1.17 |
| GTTAATAAGG | 1 |
| TCTGTATCG | 0.988 |
| GGCGCATGTG | 1.01 |
| TTGAGTATCG | 0.991 |
| ACTGGGATTT | 1.01 |
| GACAAAAGCG | 1.04 |
| AAGTGTGCG | 0.97 |
| GAAAATGTCA | 1.04 |
| CCTATTCAAC | 1.06 |
| CAAAAATAAA | 0.974 |
| TTAGGTACCA | 0.999 |
| GACTTTATAG | 0.984 |
| TTTCTAAAGC | 0.989 |
| ATGACGTCAT | 0.968 |
| AGGATTACAA | 1.04 |
| TTAGCCCTG | 1.01 |
| CTTGTAAGTT | 0.988 |
| GATGTTAGCG | 0.956 |

| Sequence | switch fluorescence ratio |
| --- | --- |
| CAGGACAACC | 1.06 |
| TCCTGTTTAT | 1.04 |
| ATTCTGGCCT | 1.07 |
| AAAATGTGCA | 1.02 |
| CGTGTCTATA | 1.05 |
| GAGGGTGGCG | 1 |
| TATTATGGAA | 1.05 |
| GGGCGCGGGT | 1.03 |
| GTGGCATCTG | 1.03 |
| CCCCGGTTAT | 1.65 |
| AGGGGCTCAC | 1.02 |
| TAGCTCTTTC | 1.06 |
| TTGTAGAGTC | 1.05 |
| CATATGTGAA | 0.985 |
| GATGGTTTTG | 0.988 |
| TCGAGCATC | 2.37 |
| AATAAGTGGG | 1.04 |
| AGCATGGGG | 0.984 |
| GGAGTAAAAT | 1.03 |
